# Measured values from ChEMBL document CHEMBL4888484, “Replenishing the malaria drug discovery pipeline: Screening and hit evaluation of the MMV Hit Generation Library 1 (HGL1) against asexual blood stage Plasmodium falciparum ,using a nano luciferase reporter read-out” (2022).
# Screen size: about 150,000 compounds; about 540 (0.36%) showed an effect of 50% or more. This is one part of the list.
# Test system: Plasmodium falciparum
# Test: Primary screen in NF54 nanoGlo assay, in single point, at 2uM, 72h; a lower Z score goes with more inhibition
# Format: functional, Erythrocyte
# Settings: timepoint 72 hour
Compound,% Inhibition [%],Z score
CC(C)[C@H](NC(=O)CCN1C(=O)CCC1=O)c1cccs1,-5,0.89
O=C(CCc1ccccc1)N1CCCN(C(=O)Nc2ccc(S(=O)(=O)N3CCOCC3)s2)CC1,-6,0.82
Cc1ccc2[nH]c(-c3nc([C@H]4CCOC4)no3)cc2c1,-16,1.86
CCOc1ncccc1C(=O)N1C[C@@H](CN2C[C@@H](C)O[C@@H](C)C2)[C@@H](CO)C1,8,-0.7
COCCN1C(=O)CC[C@@H](C(=O)NCC2CCCCC2)[C@H]1c1ccc(C)cc1,-5,0.64
CC(C)COC1CCN(CC(=O)NC2CCOCC2)CC1,-3,0.39
Clc1cnccc1-c1csc(COCc2ccccc2)n1,-8,0.69
CC/C=C(/CN1C[C@H](OC)[C@@H](O)C1)c1ccccc1,-5,0.79
Cc1noc(-c2c(C)sc(C)c2S(=O)(=O)N2CCN(c3cccc(Cl)c3)CC2)c1C,-10,1.67
COCCCN/C(=N\c1cccc(C(=O)O)c1)N1CCN(C(c2ccccc2)c2ccccc2)CC1,-11,1.8
C=CC[C@H](CC)NC(=O)NCc1nccs1,12,-2.14
COc1ccccc1C1(CC(=O)N2CCCC2c2nccs2)CC(=O)N(C2CCCC2)C1=O (stereo unspecified),5,-0.66
COc1ccc(-c2c(C)n[nH]c2C)cn1,0,0.05
C[C@H](NCc1cc2n(n1)CCCC2)c1nccs1,-1,0.21
c1cncc(COC2CCN(Cc3cscn3)CC2)c1,-8,1.4
CC(=O)NCC[C@H]1Cc2ccccc2C2(CCN(S(C)(=O)=O)CC2)O1,-3,0.41
O=C(Nc1ncc(Cc2ccccc2)s1)C1=Cc2ccccc2OC1,2,-0.23
O=C(Nc1cc(-n2cncn2)ncn1)c1cc(Cl)ccc1Cl,-15,2.49
CCc1ncnc(NCCc2nnc3n2CCCC3)c1F,-11,1.29
Cc1ccc(S(=O)(=O)N2C[C@H]3C[C@H](O)[C@H](O)C[C@H]3C2)c(F)c1,1,-0.14
Cc1cc(-c2ccc(S(=O)(=O)Nc3ccc(F)c(Cl)c3)o2)on1,2,-0.35
Cc1cccc(CN2CCC([C@]3(CCc4ccccc4)NC(=O)NC3=O)CC2)n1,-8,1.22
COc1ccc(CNC(=O)Cn2nc3c4cccc(C)c4ncn3c2=O)cc1,-5,0.85
CC1(N)CCCCC1C(=O)N1CCc2c(cnn2-c2ccccc2)C1 (stereo unspecified),2,-0.18
c1cc2ccc(NCCN3CCOCC3)nc2[nH]1,1,-0.23
C#CCOc1ccccc1CN(C)CCNS(C)(=O)=O,-7,0.67
CCOC1CC(C(=O)Nc2ccc(C)c(CC)c2)C1 (stereo unspecified),-11,2.14
O=C(NCCc1c[nH]c2cc(F)c(Cl)cc12)[C@H]1CCc2nnnn2CC1,-2,0.23
